Sequences with one replicate were seen in a single cluster, so their values are uncertain.
system: ATP; assay: switch fluorescence ratio, 500 uM ATP over buffer (Cy3 cluster intensity, sum of 5 cycles each) (fold (ratio)); higher = stronger signal-on switching upon ATP binding; sequences stand for … in TCGTCGGCAGCGTCAGATGTGTATAAGAGACAGTTTTTTTTTTTTTTTTTTTTTTTTT…TC; settings: aptamer strand: ATP DNA aptamer (quencher-CACCTGGGGGAGTATTGCGGAGGAAGG + anchor), 100 nM annealed; ATP concentration: 500 uM; one replicate
Outline: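 The quencher-labelled ATP aptamer, at 100 nM, was annealed to Cy3-labelled switching-strand clusters on a modified Illumina MiSeq flow-cell. The clusters were imaged in selection buffer, then after 15 min with 500 uM ATP at 22 °C, and this buffer/ATP cycle ran five times with NaOH stripping and re-annealing between runs. Per-cluster fluorescence ratios, summed target-cycle over summed buffer-cycle Cy3 intensity, were averaged per switch-domain sequence. Clusters outside 100-1000 RFU were excluded.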
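Note: ATP exposure 15 min at 22 °C before imaging.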

Sequence	switch fluorescence ratio
ACTTGGTGCA	1.04
ACTTGTAAGC	1.01
ACTTGTCCTT	1.03
ACTTGTCTCT	1.02
ACTTGTTGAA	1.01
ACTTTAATGC	1.1
ACTTTAGTTT	0.988
ACTTTCTCCA	1.41
ACTTTGATGA	1
ACTTTTGAAG	0.97
AGAAAAAGAA	0.946
AGAAAACGAG	0.995
AGAAAACGAT	1.04
AGAAAACTAC	1.04
AGAAACCTCA	1.28
AGAAACTCAA	1.02
AGAAACTTCA	1.24
AGAAAGAAT	0.991
AGAAAGCTTA	0.997
AGAAAGTGC	1.01
AGAAATCGAT	0.978
AGAAATGTTG	0.943
AGAAATTCTT	1.02
AGAACACAA	1
AGAACCACG	1.06
AGAACCGATG	1.11

Sequence	switch fluorescence ratio
AGAACGAGCG	0.99
AGAACTAATT	0.954
AGAACTCAGT	1.16
AGAACTCCTA	0.997
AGAACTGGGT	0.992
AGAAGACTGT	0.977
AGAAGAGCCC	1.05
AGAAGAGGAG	0.983
AGAAGCATGG	0.983
AGAAGGAGTG	0.999
AGAAGGATAT	0.945
AGAAGGGTCG	1.01
AGAAGGTTGG	0.976
AGAATGACGA	0.961
AGAATGGCA	1.07
AGAATTACAG	0.979
AGAATTCATT	1.02
AGAATTTTTC	0.963
AGACAAAGTG	1.01
AGACAAATAA	1.01
AGACACAATG	1.03
AGACAGGTGT	2.35
AGACATACGC	1.44
AGACATCGCT	0.972
AGACATGGAT	1.03
AGACCAAAAT	1.05

Sequence	switch fluorescence ratio
AGACCAATTG	1.01
AGACCAGCCC	1.03
AGACCATAAT	1.01
AGACCCGTCG	0.992
AGACCGAACA	1.15
AGACCGCCAA	1.44
AGACCGGGGC	1.05
AGACCGTTAG	0.998
AGACCTAATT	1.02
AGACGATTGC	1.01
AGACGCGGCC	1.02
AGACGGGAAT	0.979
AGACGGGCTG	1.01
AGACGTTAC	1.8
AGACGTTATG	0.992
AGACGTTGCC	1.03
AGACTAAATA	0.954
AGACTAATCA	1
AGACTACACC	1.3
AGACTATACC	1.24
AGACTCTGC	1.03
AGACTCTTAC	1.21
AGACTGGGGT	1.02
AGACTTATGA	0.987
AGACTTGGGT	0.973
AGAGAAATGT	1.03

Sequence	switch fluorescence ratio
AGAGACACGC	1.04
AGAGACCGAT	1.04
AGAGATCGTC	0.972
AGAGATTAG	1.01
AGAGATTAGG	0.997
AGAGATTCAA	1.12
AGAGCCACGG	1.04
AGAGCGGCCG	1.03
AGAGCTGGTG	1.05
AGAGGAGGGC	1.02
AGAGGATAAA	1.01
AGAGGCCAGT	0.978
AGAGGCCGGT	0.969
AGAGGCGCTC	0.962
AGAGGGGGCT	1
AGAGGGGTG	1.05
AGAGGGTGAG	0.98
AGAGGGTTCC	1.13
AGAGGTGGGT	1.02
AGAGGTGTGT	0.984
AGAGTAGCAA	1.57
AGAGTAGGTA	0.955
AGAGTCCTCC	0.994
